In PMC7819943, “Rice protein-binding microarrays: a tool to detect cis-acting elements near promoter regions in rice”:
This is one part of the list.

These sequences were tested against T1, OsWOX13 (Oryza sativa, UniProt Q5QMM3 1-267) (assay: protein-binding microarray (RPBM); PBS, 2% BSA, 51.3 ng/ul salmon testes DNA, 50 uM zinc acetate, 200 nM TF, 25 C, 1 h; high values mean tight binding). Settings: protein: recombinant; tags: N-terminal polyhistidine and DsRed monomer fusion (pET32a); label: CyDye5-dUTP incorporated in the synthesized complementary strand; 3' TTTTT single-stranded linker to array surface; dsDNA, one strand shown.
T1 sequence: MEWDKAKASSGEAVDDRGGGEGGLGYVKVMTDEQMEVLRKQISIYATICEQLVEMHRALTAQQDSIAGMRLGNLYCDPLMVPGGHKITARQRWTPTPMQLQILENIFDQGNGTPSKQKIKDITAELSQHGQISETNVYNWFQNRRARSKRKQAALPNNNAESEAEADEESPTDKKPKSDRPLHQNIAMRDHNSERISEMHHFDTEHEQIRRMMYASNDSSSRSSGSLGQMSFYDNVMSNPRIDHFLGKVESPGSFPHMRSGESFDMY
In short: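 Transcription factors were made in E. coli BL21-CodonPlus as N-terminal fusions to a polyhistidine tag and DsRed, then purified on Ni–NTA. After primer extension with Cy5-dUTP and blocking with 2% BSA, a custom Agilent array was exposed for 1 h at 25 °C to 200 nM protein in PBS, 2% BSA, salmon testes DNA and 50 µM zinc acetate. Washed arrays were scanned on an Axon 4000B, and the binding signal is per-feature fluorescence intensity in arbitrary units.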

**Q.** How did the binding signal turn out when “CCGAACCACAAACAGACTGGGATTGCATTTGCAATAGGCACGGAGTCACCTAGTGCAG” was run?
**A.** 5080 fluorescence intensity (a.u.)

**Q.** For “AGAACTGATTAGAGAAACACATTCGAGATATGCGGTTTGCCGGAGTCACCTAGTGCAG”, which binding signal is on record?
**A.** 35000 fluorescence intensity (a.u.)

**Q.** Which binding signal does the source give for “CTAACTAATTACTCGGCCAACCGGTTGCTGGGAACATAACCGGAGTCACCTAGTGCAG” here?
**A.** 5760 fluorescence intensity (a.u.)

**Q.** “TAGTTACATAGATAATTTATAACAATACTCCACTTAATATCGGAGTCACCTAGTGCAG” was tested. Which binding signal did it give?
**A.** 8530 fluorescence intensity (a.u.)

**Q.** Which binding signal does the source give for “AGCCCACTCATAATTTACCAATCCCAAAGAAGATACCTCGCGGAGTCACCTAGTGCAG” here?
**A.** 4220 fluorescence intensity (a.u.)

**Q.** Which binding signal does the source give for “TCTGATTTGGGAATTAAAACCTCCAATTTAGGTCGATTCCCGGAGTCACCTAGTGCAG” here?
**A.** 32200 fluorescence intensity (a.u.)

**Q.** Which binding signal does the source give for “CATGACAGAAATGCATGTGACACTTCCATCCTTTCTTGTACGGAGTCACCTAGTGCAG” here?
**A.** 11300 fluorescence intensity (a.u.)

**Q.** With “CGTGAGAATGACAAATTGTTAATTATTCCGGGCTTGGGACCGGAGTCACCTAGTGCAG” as the sequence, how does the binding signal read?
**A.** 16200 fluorescence intensity (a.u.)

**Q.** “GACGATCAAATTAAACTGACTTTCTGATCACCTGAAACGACGGAGTCACCTAGTGCAG” was tested. Which binding signal did it give?
**A.** 8580 fluorescence intensity (a.u.)

**Q.** For “ACTCGCATAATTAACATTTAACAAGCGCTGAAATCCGTTTCGGAGTCACCTAGTGCAG”, which binding signal is on record?
**A.** 20800 fluorescence intensity (a.u.)

**Q.** How did the binding signal turn out when “ATATTGGCACTTAATTAACACAGTGGCCTAAGCAGAAGCCCGGAGTCACCTAGTGCAG” was run?
**A.** 4100 fluorescence intensity (a.u.)

**Q.** With “AATGATTATCTATAAGCTCTCTACAAGAGATCCATGTTAGCGGAGTCACCTAGTGCAG” as the sequence, how does the binding signal read?
**A.** 38200 fluorescence intensity (a.u.)

**Q.** With “TGAATCTAATTGATGCCTTTTCAGGTTGATAAAGAAGAGGCGGAGTCACCTAGTGCAG” as the sequence, how does the binding signal read?
**A.** 16400 fluorescence intensity (a.u.)

**Q.** With “ATTCTCGATTTAACACTAATCATCATTATCCTAATAACCACGGAGTCACCTAGTGCAG” as the sequence, how does the binding signal read?
**A.** 6320 fluorescence intensity (a.u.)

**Q.** “TCTTTTGATTATCATCAAACTAATATGACTTGTTGATCTTCGGAGTCACCTAGTGCAG” was tested. Which binding signal did it give?
**A.** 25200 fluorescence intensity (a.u.)

**Q.** How did the binding signal turn out when “CACGAGCTAGGTTGATTGGTAGCTAGCAGCTAGCTCCAGCCGGAGTCACCTAGTGCAG” was run?
**A.** 9190 fluorescence intensity (a.u.)

**Q.** “TTTTAATCAAACTCCACATTAAATTAATAAATTAGGTGATCGGAGTCACCTAGTGCAG” was tested. Which binding signal did it give?
**A.** 11800 fluorescence intensity (a.u.)

**Q.** For “CTGGCTAATTAACTAGCTAGCTCGTGATCGATAATATACACGGAGTCACCTAGTGCAG”, which binding signal is on record?
**A.** 14200 fluorescence intensity (a.u.)

**Q.** With “AACTAATTACGGAATCCGTCAGTAAACAACGAGACGAATTCGGAGTCACCTAGTGCAG” as the sequence, how does the binding signal read?
**A.** 11100 fluorescence intensity (a.u.)

**Q.** “CAAATCAATTATATCCCCAAATTTCTCACCAGTCTACTTCCGGAGTCACCTAGTGCAG” was tested. Which binding signal did it give?
**A.** 16200 fluorescence intensity (a.u.)

**Q.** With “CAATTAACACATGATGAATTAATTATTAACTATTATAAACCGGAGTCACCTAGTGCAG” as the sequence, how does the binding signal read?
**A.** 11700 fluorescence intensity (a.u.)

**Q.** With “TGCATCCAATCAAAGTGATGAGTATATCTGTGTTCCTTCCCGGAGTCACCTAGTGCAG” as the sequence, how does the binding signal read?
**A.** 14300 fluorescence intensity (a.u.)

**Q.** For “ATAATTGAATTAAACTGAAATGTTACAATAACCCTCTTTTCGGAGTCACCTAGTGCAG”, which binding signal is on record?
**A.** 42800 fluorescence intensity (a.u.)

**Q.** Which binding signal does the source give for “TTTAACACGTAATTGATCATGACTCATGAGCTAATCATCCCGGAGTCACCTAGTGCAG” here?
**A.** 35600 fluorescence intensity (a.u.)

**Q.** For “CCACACCAATTAAAATGATGGCGTTGTACAGTTCATCGGGCGGAGTCACCTAGTGCAG”, which binding signal is on record?
**A.** 5640 fluorescence intensity (a.u.)

**Q.** For “AGCTCTGGTTAATTGCATTTTGGTTCCAGCTATCATGACCCGGAGTCACCTAGTGCAG”, which binding signal is on record?
**A.** 9190 fluorescence intensity (a.u.)

**Q.** Which binding signal does the source give for “TTTAATTAAATTTAACATTAAATATATTTTGACTATTTGTCGGAGTCACCTAGTGCAG” here?
**A.** 53000 fluorescence intensity (a.u.)

**Q.** Which binding signal does the source give for “ATATGCTGTTAATTTGTTATATATACGATGTTGGTATATTCGGAGTCACCTAGTGCAG” here?
**A.** 12300 fluorescence intensity (a.u.)

**Q.** For “ATGTGTATGATGTGTTTGTTTATGTGTGGACTTTATAATACGGAGTCACCTAGTGCAG”, which binding signal is on record?
**A.** 3210 fluorescence intensity (a.u.)

**Q.** For “AGTGATTTTACCTAATCTACCTGATCTCCTACTGTCTTGTCGGAGTCACCTAGTGCAG”, which binding signal is on record?
**A.** 22100 fluorescence intensity (a.u.)

**Q.** With “CAAACAAAATTACTGACAAGAGCTTAAACGTTCTCTCATTCGGAGTCACCTAGTGCAG” as the sequence, how does the binding signal read?
**A.** 5200 fluorescence intensity (a.u.)

**Q.** Which binding signal does the source give for “TATTGTGACTGGTTTTGATTAGTTAAGGAACACCGGATATCGGAGTCACCTAGTGCAG” here?
**A.** 12800 fluorescence intensity (a.u.)

**Q.** “TAGATTATAATAATCTAGCATAATAATCTACTTGTTTGTTCGGAGTCACCTAGTGCAG” was tested. Which binding signal did it give?
**A.** 9200 fluorescence intensity (a.u.)

**Q.** “CAGAGTGAAGATTTGTCAATTTGTATGGCACAAATGTCTACGGAGTCACCTAGTGCAG” was tested. Which binding signal did it give?
**A.** 13900 fluorescence intensity (a.u.)

**Q.** How did the binding signal turn out when “CACTATGATTATTGTTGTTACACTATCAGCCTCTGCTCAACGGAGTCACCTAGTGCAG” was run?
**A.** 17700 fluorescence intensity (a.u.)

**Q.** For “GGGCTAAATTGCTCTAGGCCAAGCATGCTTAACCTTAGAGCGGAGTCACCTAGTGCAG”, which binding signal is on record?
**A.** 4120 fluorescence intensity (a.u.)

**Q.** How did the binding signal turn out when “ACGAGGAATCAATCATCAGTCGGCGAAGGCCCATCAACAGCGGAGTCACCTAGTGCAG” was run?
**A.** 13300 fluorescence intensity (a.u.)

**Q.** For “TTTTACTATAACGTTTGATCATTTGTGTTATTTAAATTTTCGGAGTCACCTAGTGCAG”, which binding signal is on record?
**A.** 4170 fluorescence intensity (a.u.)

**Q.** How did the binding signal turn out when “GCATAAATGCATAATCAGTATAGGAGCAAATCGTTTTAAACGGAGTCACCTAGTGCAG” was run?
**A.** 3220 fluorescence intensity (a.u.)

**Q.** How did the binding signal turn out when “AAGAGAGATTATTGACTTATCACCGATCAGCAGAAAAGAGCGGAGTCACCTAGTGCAG” was run?
**A.** 4340 fluorescence intensity (a.u.)

**Q.** With “ATCACAAATTACTTTTAAACTATGAGATTACGATGAATGACGGAGTCACCTAGTGCAG” as the sequence, how does the binding signal read?
**A.** 7640 fluorescence intensity (a.u.)

**Q.** For “ATTGATTTCACGTGTGTTGCGTGAAGGCAGCGGCTCGGTTCGGAGTCACCTAGTGCAG”, which binding signal is on record?
**A.** 4030 fluorescence intensity (a.u.)

**Q.** “GTCAATCTAATCACAAACTTAGATGTTTATGACCCACAAACGGAGTCACCTAGTGCAG” was tested. Which binding signal did it give?
**A.** 14900 fluorescence intensity (a.u.)

**Q.** “TCTGTATTAATTTTATCCCGTGACTGCCGTTTTGCAACGGCGGAGTCACCTAGTGCAG” was tested. Which binding signal did it give?
**A.** 16900 fluorescence intensity (a.u.)

**Q.** Which binding signal does the source give for “ATTAATTGTGTGCATGTATACATGCCTTATATTATGGAACCGGAGTCACCTAGTGCAG” here?
**A.** 20800 fluorescence intensity (a.u.)

**Q.** With “TATAATTAAACTAATTTACAAGTAAAGTAAGTGTGAGAAACGGAGTCACCTAGTGCAG” as the sequence, how does the binding signal read?
**A.** 4790 fluorescence intensity (a.u.)

**Q.** With “AGGGTTAATTTAGAGGTATTCACTCGCTGTTTTCATCACTCGGAGTCACCTAGTGCAG” as the sequence, how does the binding signal read?
**A.** 6370 fluorescence intensity (a.u.)

**Q.** “AACCAAAATTAAATAACCGCTTACCACAACACACGTGATACGGAGTCACCTAGTGCAG” was tested. Which binding signal did it give?
**A.** 3450 fluorescence intensity (a.u.)

**Q.** For “ATTTAATTCCTGTGGCTTGATTTCCTTCTCGGCACAAGAACGGAGTCACCTAGTGCAG”, which binding signal is on record?
**A.** 6420 fluorescence intensity (a.u.)

**Q.** How did the binding signal turn out when “TCCAATAAAATCAATTTAATATACAAACATCAAATCTACTCGGAGTCACCTAGTGCAG” was run?
**A.** 3480 fluorescence intensity (a.u.)

**Q.** With “TACATATGTAATTGGTATGTAATTTTCGAATTTACATATGCGGAGTCACCTAGTGCAG” as the sequence, how does the binding signal read?
**A.** 18000 fluorescence intensity (a.u.)

**Q.** Which binding signal does the source give for “ATAAATTTGTGATGCCAATTTAAGTATGTTCATTCGATCTCGGAGTCACCTAGTGCAG” here?
**A.** 30200 fluorescence intensity (a.u.)

**Q.** “ATAAAATTTTAAAATTTAAATTGTAGCCACAACTGATAAGCGGAGTCACCTAGTGCAG” was tested. Which binding signal did it give?
**A.** 15500 fluorescence intensity (a.u.)

**Q.** How did the binding signal turn out when “CCCTCGCCTGGGCCGATCCCCATACATCCCGCGAGCGCGACGGAGTCACCTAGTGCAG” was run?
**A.** 3440 fluorescence intensity (a.u.)
